# Data: the supplement of paper PMC11417369
# ± gives the standard deviation of the averaged measurements. Some of the results follow.
# Test system: PfAP2-EXP AP2 domain (GST-tagged)
# Assay: gcPBM binding intensity (ln(normalized median fluorescence intensity)); higher = stronger DNA binding
# Procedure, shortened: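 Using an Agilent 4 × 180k array, primer-extended double-stranded 36-bp intergenic genomic probes and negative controls were exposed for 1 h to GST-fused P. falciparum DNA-binding domains expressed in E. coli. Binding was carried out in 1× PBS with 1% milk, 0.2 mg/ml BSA, 0.5% salmon testes DNA and 0.03% Triton X-100, and protein was detected with Alexa488 anti-GST antibody and a 488 nm scan. Binding intensity is the highest Masliner-normalised natural-log median intensity across replicate spots of either probe orientation.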
row,Sequence,gcPBM binding intensity (ln)
1,ACATCAAGCAGACACACACACACACCCACCCACCGA [CACACA_site371],8.7 ± 0.59
2,CTTTTTTAAATTATTGCACACAAAAATGAAAGGAAA [CACACA_site8412],8.51 ± 0.33
3,AACGAGCAAGACGGGGTGCACACAAACTAATATGCC [GTGCAC_site9436],9.66 ± 0.28
4,TAATAAAAGATATATACACACAAATAAATAAATAAA [CACACA_site7818],8.7 ± 0.39
5,AAATATAAAAAAAATATATAATTTTTACATCGAATT [CACACA_negctrl_site544],8.24 ± 0.38
6,AAAAAAAAATATATATATATATATATAAATAAATTT [CACACA_negctrl_site519],8.14 ± 0.47
7,ATAATATAAACATATTGTACACATATATTGCTATTT [XGTACX_site2799],8.51 ± 0.26
8,TTATTATTGTTATGTTGTACTTTTACAAACTTTTTG [XGTACX_site8797],8.8 ± 0.36
9,TTCTATGAATTCATAGTGCAAATGAGTTATTTTTTC [GTGCAC_site9709],8.44 ± 0.23
10,AAGAAAATAGGGTTCATAGGATTATACTTTTGGAAT [TGCATGCA_negctrl_site80],8.22 ± 0.67
11,GTTATACGCATATATACACACATATGTAAATATATA [CACACA_site3280],8.57 ± 0.42
12,CTTTTTATTAAATATGCATGTGTATCAACAGTGAAT [TGCATGCA_site447],8.74 ± 0.35
13,TAAAAAAAATAGCATACACACATATATACCTATATA [CACACA_site4535],8.24 ± 0.28
14,ATCATAACACCTCCACACAAATAAATATAACATATA [XGTACX_negctrl_site269],8.62 ± 0.63
15,ATGAGTGCACAAATATATATATATATATATATATAT [CACACA_negctrl_site404],10.2 ± 0.47
16,TTGTTTTTTTCTTTTTGTACATATACAACATACATA [XGTACX_site8996],8.86 ± 0.49
17,CATACACCCGGACACACACACACACCCATATATAAT [CACACA_site4494],8.81 ± 0.39
18,GAAAATATATTATTTACACACATGTTCAAATTAAAA [CACACA_site3761],8.35 ± 0.4
19,AAACAATTTATGTGTAGTACATGTTGGAGATAATTT [XGTACX_site6000],8.86 ± 0.38
20,TATTAAATATAAGTCACACATAATTTTTCGTCCTTT [CACACA_site5065],8.37 ± 0.3
21,TACTGATCCACATTTATACACACCTCGGTTTGTAGA [CACACA_site417],8.56 ± 0.4
22,ATATATATATATACAACACACATGTAATATATAAAT [CACACA_site3294],10 ± 0.31

row,Sequence,gcPBM binding intensity (ln)
1,TATAGATTCTTTTAATGTACATGTCTTTTCATTTCC [XGTACX_site8348],8.68 ± 0.54
2,TTTTTAAATATATAATAGAATTGATTGTATTATATA [CACACA_negctrl_site196],7.96 ± 0.56
3,GTATGAAAAAAAATATGTACACATATATATTTGGTA [XGTACX_site6309],8.44 ± 0.27
4,CCTTTATACATTTTCTGTACTGATATATATTAAAAA [XGTACX_site8467],8.74 ± 0.34
5,TTGTGTTCTTATTTTTACACCGAAAAATATTAAAAG [CACACA_negctrl_site535],8.55 ± 0.29
6,ATATAAAAAAAAAAAAAAAAATATATATATATATAT [GTGCAC_negctrl_site251],10.2 ± 0.13
7,TTGGTTTGAAAGAAAGAAATTATTAAAAAGGAAATA [CACACA_negctrl_site26],8.48 ± 0.47
8,GATATACTGTCAATTCTACACACCATAGGGGGAGCA [CACACA_site8562],9.68 ± 0.33
9,TATATTTATATACCAACACACATACATATTTATATA [CACACA_site6931],8.45 ± 0.57
10,AAAATTCAGCGAAAGGGTACATATGTGTAAGGGTAA [XGTACX_site8205],9.18 ± 0.5
11,CTATTATATCAGTAGACACACATATAACATTTATAT [CACACA_site141],8.6 ± 0.4
12,ATATTATATAGAAACACACATACACATGTAAATATA [CACACA_site2037],8.83 ± 0.57
13,TTTATTAAACTTGACACACACACACCCACATATATA [CACACA_site760],8.78 ± 0.33
14,ATCTTATATTATCACACACACACGCACAAAACAGAA [CACACA_site1463],9.02 ± 0.49
15,TAATTATTTCGTATATTTGAATGGTACATGCTTATA [CACACA_negctrl_site1178],8.44 ± 0.37
16,ATATAGAAAATGCATACACACTTTATATATATATTT [CACACA_site4658],8.26 ± 0.63
17,ATGGATTTTACCATAGCACACATATATGAATATTTT [CACACA_site8535],8.53 ± 0.47
18,AATGTGCTCGCTATTACACACTCATTGGGATAAAAT [CACACA_site8627],8.55 ± 0.39
19,AGTAACAATTATTATGCATGTACAAATAATCATTTT [TGCATGCA_site867],8.71 ± 0.28
20,TATATATATTTTTGAAGTACTTATTACACTAGCATT [XGTACX_site8965],8.73 ± 0.35
21,AAGAAAATATAACAAAGTAAAAACATATTATATATA [TGCATGCA_negctrl_site248],8.32 ± 0.41
22,TTTTTTTTTTTTTAATGTACAAATATGGTGACAAAA [XGTACX_site8709],8.44 ± 0.42

row,Sequence,gcPBM binding intensity (ln)
1,AAAAACGATTAATGTGTACACACATAGTTATAAACA [CACACA_site8659],8.64 ± 0.34
2,TTGTTCTATAATTATACATGCATTAACAGAGTAAAA [TGCATGCA_site909],9.38 ± 0.57
3,ATATATATATATATATGTACATATATTTTCTTTTTG [XGTACX_site6017],10.1 ± 0.27
4,AGGATAACATACAAAAGTACATAAAACTAAAAAAAC [XGTACX_site26],9.09 ± 0.26
5,TGGGAATAACGACACACACACACACGGATATAAATA [CACACA_site7633],8.91 ± 0.64
6,AAAAATAGTCTTCTTGCACTTTTTAATTTATTTTAA [CACACA_negctrl_site1322],8.29 ± 0.23
7,TGATTATCCTATATATATTTCATAATGGAAAAAAAT [TGCATGCA_negctrl_site444],8.21 ± 0.38
8,AATGTGGTATTTACAAAAAGGCTTTATACTTAAAAA [XGTACX_negctrl_site566],8.38 ± 0.43
9,TATATTTTGTTTTTGTGTACATATTGGTAGTTATTT [XGTACX_site7659],8.95 ± 0.43
10,CTTTTCATCTTCTTAACACACAAAAAAAAAAAAAAA [CACACA_site3886],8.29 ± 0.4
11,TTTGTTAAAAATATATTATGAATAAAAATATATTTT [CACACA_negctrl_site170],8.03 ± 0.33
12,AATTATATTACGAAATGTACATATAATAATGTATAT [XGTACX_site4410],8.48 ± 0.38
13,TTCAAAACTTAAAATCGTACAAGACAATTATTATAT [XGTACX_site6626],8.38 ± 0.42
14,GCCATTGTACCATCCACACACATATATATATGTATA [CACACA_site2704],9.24 ± 0.42
15,TATGTCAATCAAGCAAGTACATATATATATAAATAT [XGTACX_site7554],8.47 ± 0.42
16,TACAAAATAACTAGCACACATATGTATAAACATATA [CACACA_site5948],8.46 ± 0.35
17,TTAAAACATAAAAAAAGTACATACAAATATATATAA [XGTACX_site789],8.7 ± 0.3
18,CATATATATTTATGTACACACATTAATAAAAAAAAA [CACACA_site5741],8.58 ± 0.27
19,TTTTTTGTTATTGGCGTGCACATATCCATTTATAGT,9.22 ± 0.071
20,CTTTTAATATTAAGATGTACTTAGAATTTTTTTTTT [XGTACX_site8338],8.29 ± 0.45
21,AACAGCATATCACATTTCTTCAAAAAAAAATAAAAT [CACACA_negctrl_site733],8.37 ± 0.5
22,TGTAGAGCGCAAAGTAGTACTACAAATTATGGAGGG [XGTACX_site3022],9.71 ± 0.74

row,Sequence,gcPBM binding intensity (ln)
1,ATATATATAAATAATTGTACTTAAAAAAAAAAAAGG [XGTACX_site6847],8.5 ± 0.23
2,GATTAATTTAAAAAATGTACATTTTATTGTATAACC [XGTACX_site5539],8.47 ± 0.31
3,TAAACACCCATATAAACACACATACATACATACATA [CACACA_site5383],8.77 ± 0.39
4,ACAATATGTATATATATATATATGCAAATGTATAAA [CACACA_negctrl_site53],8.59 ± 0.31
5,CCAAGAAACCAAAAAAGTACATACATGGTTATAATT [XGTACX_site4249],8.91 ± 0.31
6,TGAACTCATAGATTTAGTACATATATAAAAAAATTC [XGTACX_site1692],8.32 ± 0.33
7,ATATTAAATTCAATTTAATGTTTTGTGAATTTTAGA [CACACA_negctrl_site1421],8.28 ± 0.39
8,TTAAATGGAAAAATATGTACATATATATATATATTT [XGTACX_site2286],8.52 ± 0.22
9,TATACACGCGGACACACACACACACGCAAAAAAAAA [CACACA_site6377],8.8 ± 0.47
10,ATAAGCCATTTTTGTGGTACATAAAATAGATATATA [XGTACX_site5175],8.35 ± 0.35
11,TTTACACCGTAATATGCATGTGTGTATATATTTTTG [TGCATGCA_site186],8.47 ± 0.35
12,TAAAAACCAAAGAAAAGTACAAATTTAAATGAGAAA [XGTACX_site7450],8.86 ± 0.57
13,CATCTTAGTTTGAGTTGTACAATATTTATAAAAATA [XGTACX_site693],8.63 ± 0.35
14,ACAAGTTTAACATTTCGTACTTATTGTGTTTTTTTT [XGTACX_site5487],8.76 ± 0.51
15,GCAGTATTTCGGAACACACAAACATAAATATGTATT [CACACA_site2316],8.45 ± 0.42
16,ATATATATATATGTATGTACATATTTTTTTTAACAC [XGTACX_site8475],9.93 ± 0.4
17,ATATATATTTAAAGATGTACATAATGAAATGGTTAT [XGTACX_site4706],8.92 ± 0.3
18,AGCACAGACGGACACACACACACACCCACAGACACA [CACACA_site4358],8.49 ± 0.49
19,AAATTTATTTATTATAGTACACTTAATACTACCCAA [XGTACX_site41],8.3 ± 0.35
20,GCACAATTTACACTTAAACACACAAAAAAAAATTAT [CACACA_site8642],8.52 ± 0.52
21,AAATTAGACTATAATACACACATAAAAAAAAAAAAA [CACACA_site6155],8.4 ± 0.57
